Molecules are shown by their SMILES. Where only a bound is given, the exact number is not on record here.

As a reminder, the Ki is the equilibrium dissociation constant of an inhibitor or competing ligand from its target.

For one assay, the target named is Recombinant heterodimeric HCV NS3/NS4A protease (strain 1a) (Hepatitis C virus genotype 1a, UniProt P27958). Nature of the assay: Spectrophotometric assay for HCV protease inhibitory activity (chromogenic ester substrates). The following applies: HCV NS3/NS4A protease; text calls the values Ki* (Table 2). In kind it is biochemical. The source says:
The present invention relates to novel HCV protease inhibitors. This utility can be manifested in their ability to inhibit the HCV NS3/NS4a serine protease.
Assay for HCV Protease Inhibitory Activity:
Spectrophotometric Assay: Spectrophotometric assay for the HCV serine protease can be performed on the inventive compounds by following the procedure described by R. Zhang et al, Analytical Biochemistry, 270 (1999) 268-275, the disclosure of which is incorporated herein by reference. The assay based on the proteolysis of chromogenic ester substrates is suitable for the continuous monitoring of HCV NS3 protease activity. The substrates are derived from the P side of the NS5A-NS5B junction sequence (Ac-DTEDVVX(Nva), where X=A or P) (SEQ ID NO: 1) whose C-terminal carboxyl groups are esterified with one of four different chromophoric alcohols (3- or 4-nitrophenol, 7-hydroxy-4-methyl-coumarin, or 4-phenylazophenol). Illustrated below are the synthesis, characterization and application of these novel spectrophotometric ester substrates to high throughput screening and detailed kinetic evaluation of HCV NS3 protease inhibitors. Materials and Methods:
Materials: Chemical reagents for assay related buffers are obtained from Sigma Chemical Company (St. Louis, Mo.). Reagents for peptide synthesis were from Aldrich Chemicals, Novabiochem (San Diego, Calif.), Applied Biosystems (Foster City, Calif.) and Perseptive Biosystems (Framingham, Mass.). Peptides are synthesized manually or on an automated ABI model 431A synthesizer (from Applied Biosystems). UV/VIS Spectrometer model LAMBDA 12 was from Perkin Elmer (Norwalk, Conn.) and 96-well UV plates were obtained from Corning (Corning, N.Y.). The prewarming block can be from USA Scientific (Ocala, Fla.) and the 96-well plate vortexer is from Labline Instruments (Melrose Park, Ill.). A Spectramax Plus microtiter plate reader with monochrometer is obtained from Molecular Devices (Sunnyvale, Calif.).
Protein concentrations are determined by the Biorad dye method using recombinant HCV protease standards previously quantified by amino acid analysis. Prior to assay initiation, the enzyme storage buffer (50 mM sodium phosphate pH 8.0, 300 mM NaCl, 10% glycerol, 0.05% lauryl maltoside and 10 mM DTT) is exchanged for the assay buffer (25 mM MOPS pH 6.5, 300 mM NaCl, 10% glycerol, 0.05% lauryl maltoside, 5 μM EDTA and 5 μM DTT) utilizing a Biorad Bio-Spin P-6 prepacked column. Substrate Synthesis and Purification: The synthesis of the substrates is done as reported by R. Zhang et al, (ibid.) and is initiated by anchoring Fmoc-Nva-OH to 2-chlorotrityl chloride resin using a standard protocol (K. Barlos et al, Int. J. Pept. Protein Res., 37 (1991), 513-520). The peptides are subsequently assembled, using Fmoc chemistry, either manually or on an automatic ABI model 431 peptide synthesizer. […] The combined filtrate and DCM wash is evaporated azeotropically (or repeatedly extracted by aqueous Na2CO3 solution) to remove the acid used in cleavage. The DCM phase is dried over Na2SO4 and evaporated.
The ester substrates are assembled using standard acid-alcohol coupling procedures (K. Holmber et al, Acta Chem. Scand., B33 (1979) 410-412). Peptide fragments are dissolved in anhydrous pyridine (30-60 mg/ml) to which 10 molar equivalents of chromophore and a catalytic amount (0.1 eq.) of para-toluenesulfonic acid (pTSA) were added. Dicyclohexylcarbodiimide (DCC, 3 eq.) is added to initiate the coupling reactions. Product formation is monitored by HPLC and can be found to be complete following 12-72 hour reaction at room temperature. Pyridine solvent is evaporated under vacuum and further removed by azeotropic evaporation with toluene.
Regarding `C=CC1C[C@]1(NC(=O)[C@@H]1[C@@H]2C(CN1C(=O)[C@@H](NC(=O)N[C@H](CN(C)S(=O)(=O)c1cccs1)C(C)(C)C)C(C)(C)C)C2(C)C)C(=O)NS(=O)(=O)c1ccccc1` (stereo partly shown) [drawing 125], the Ki was determined as 9 nM.
As for `C=CC1C[C@]1(NC(=O)[C@@H]1[C@@H]2C(CN1C(=O)[C@@H](NC(=O)N[C@H](CN(C)S(C)(=O)=O)C(C)(C)C)C(C)(C)C)C2(C)C)C(=O)NS(=O)(=O)c1ccccc1` (stereo partly shown) [drawing 126], the Ki is 7 nM.
Same read-out and setting: the value for `C=CC1C[C@]1(NC(=O)[C@@H]1[C@@H]2C(CN1C(=O)[C@@H](NC(=O)NC1(CS(=O)(=O)C(C)(C)C)CCCCC1)C(C)(C)C)C2(C)C)C(=O)NS(=O)(=O)c1ccccc1` (stereo partly shown) [drawing 127] was 7 nM.

The assay is the same for the next values; noted with them: HCV NS3/NS4a serine protease; category A or B (Table 1).
Take `CC(C)(C)OC(=O)N[C@H](C(=O)N1CC2[C@@H]([C@H]1C(=O)NC1(C(=O)NS(=O)(=O)c3ccccc3)CC1)C2(C)C)C(C)(C)C` (stereo partly shown) [Entry 2]: the inhibition constant Ki is above 100 nM.
For the molecule `CC(C)(C)NC(=O)N[C@H](C(=O)N1CC2[C@@H]([C@H]1C(=O)NC1(C(=O)NS(=O)(=O)c3ccccc3)CC1)C2(C)C)C(C)(C)C` (stereo partly shown) [Entry 3], the Ki is above 100 nM.
Same read-out and setting: the value for `CC(C)[C@H](NC(=O)N[C@H](C(=O)N1CC2[C@@H]([C@H]1C(=O)NC1(C(=O)NS(=O)(=O)c3ccccc3)CC1)C2(C)C)C(C)(C)C)C(=O)C1CC1` (stereo partly shown) [Entry 4] was above 100 nM; that for `C=CC1C[C@]1(NC(=O)[C@@H]1[C@@H]2C(CN1C(=O)[C@@H](NC(=O)OC(C)(C)C)C(C)(C)C)C2(C)C)C(=O)NS(=O)(=O)c1ccccc1` (stereo partly shown) [Entry 5] was above 100 nM.
On the same count and under the same terms, the value for `C=CC1C[C@]1(NC(=O)[C@@H]1[C@@H]2C(CN1C(=O)[C@@H](NC(=O)N[C@H](CN(C)S(=O)(=O)c1cccs1)C(C)(C)C)C(C)(C)C)C2(C)C)C(=O)NS(=O)(=O)c1ccccc1` (stereo partly shown) [Entry 6] was below 100 nM; that for `C=CC1C[C@]1(NC(=O)[C@@H]1[C@@H]2C(CN1C(=O)[C@@H](NC(=O)N[C@H](C(=O)C1CC1)C(C)C)C(C)(C)C)C2(C)C)C(=O)NS(=O)(=O)c1ccccc1` (stereo partly shown) [Entry 7] was below 100 nM; that for `C=CC1C[C@]1(NC(=O)[C@@H]1[C@@H]2C(CN1C(=O)[C@@H](NC(=O)NC(C)(C)C)C(C)(C)C)C2(C)C)C(=O)NS(=O)(=O)c1ccccc1` (stereo partly shown) [Entry 8] was above 100 nM.
`C=CC1C[C@]1(NC(=O)[C@@H]1[C@@H]2C(CN1C(=O)[C@@H](NC(=O)N[C@H](CN(C)S(C)(=O)=O)C(C)(C)C)C(C)(C)C)C2(C)C)C(=O)NS(=O)(=O)c1ccccc1` (stereo partly shown) [Entry 9]: the Ki was below 100 nM.
Still for that read-out and setting: the value for `C=CC1C[C@]1(NC(=O)[C@@H]1[C@@H]2C(CN1C(=O)[C@@H](NC(=O)NC1(CS(=O)(=O)C(C)(C)C)CCCCC1)C(C)(C)C)C2(C)C)C(=O)NS(=O)(=O)c1ccccc1` (stereo partly shown) [Entry 10] was below 100 nM; that for `CN(C[C@@H](NC(=O)N[C@H](C(=O)N1CC2[C@@H]([C@H]1C(=O)NC1(C(=O)NS(=O)(=O)c3ccccc3)CC1)C2(C)C)C(C)(C)C)C(C)(C)C)S(=O)(=O)c1cccs1` (stereo partly shown) [Entry 11] was above 100 nM.
Still for that read-out and setting: the value for `C=CC1C[C@]1(NC(=O)[C@@H]1[C@@H]2C(CN1C(=O)[C@@H](NC(=O)OC(C)(C)C)C(C)(C)C)C2(C)C)C(=O)NS(=O)(=O)C1CC1` (stereo partly shown) [Entry 12] was below 100 nM; that for `C=CC1C[C@]1(NC(=O)[C@@H]1[C@@H]2C(CN1C(=O)[C@@H](NC(=O)N[C@H](CN(C)S(=O)(=O)c1ccccn1)C(C)(C)C)C(C)(C)C)C2(C)C)C(=O)NS(=O)(=O)C1CC1` (stereo partly shown) [Entry 13] was below 100 nM; that for `C=CC1C[C@]1(NC(=O)[C@@H]1[C@@H]2C(CN1C(=O)[C@@H](NC(=O)N[C@H](CN(C)S(C)(=O)=O)C(C)(C)C)C(C)(C)C)C2(C)C)C(=O)NS(=O)(=O)C1CC1` (stereo partly shown) [Entry 14] was below 100 nM.

Values taken from patent US7550559B2, “Acylsulfonamide compounds as inhibitors of hepatitis C virus NS3 serine protease” (Schering Corporation, priority 2004, dated 2009).
